# Data: publication PMC4336329 (PLoS ONE, 2015)
# Screen size: about 310,000 compounds; about 2,200 (0.71%) showed an effect of 50% or more. The effect is printed as a negative number. This is one part of the list.
# Target: human ether-à-go-go-related gene (hERG) potassium channel (human, UniProt Q12809)
# Test: primary screen, population patch clamp on CHO cells stably expressing hERG
# human ether-à-go-go-related gene (hERG) potassium channel, sequence (Q12809 whole entry, looked up): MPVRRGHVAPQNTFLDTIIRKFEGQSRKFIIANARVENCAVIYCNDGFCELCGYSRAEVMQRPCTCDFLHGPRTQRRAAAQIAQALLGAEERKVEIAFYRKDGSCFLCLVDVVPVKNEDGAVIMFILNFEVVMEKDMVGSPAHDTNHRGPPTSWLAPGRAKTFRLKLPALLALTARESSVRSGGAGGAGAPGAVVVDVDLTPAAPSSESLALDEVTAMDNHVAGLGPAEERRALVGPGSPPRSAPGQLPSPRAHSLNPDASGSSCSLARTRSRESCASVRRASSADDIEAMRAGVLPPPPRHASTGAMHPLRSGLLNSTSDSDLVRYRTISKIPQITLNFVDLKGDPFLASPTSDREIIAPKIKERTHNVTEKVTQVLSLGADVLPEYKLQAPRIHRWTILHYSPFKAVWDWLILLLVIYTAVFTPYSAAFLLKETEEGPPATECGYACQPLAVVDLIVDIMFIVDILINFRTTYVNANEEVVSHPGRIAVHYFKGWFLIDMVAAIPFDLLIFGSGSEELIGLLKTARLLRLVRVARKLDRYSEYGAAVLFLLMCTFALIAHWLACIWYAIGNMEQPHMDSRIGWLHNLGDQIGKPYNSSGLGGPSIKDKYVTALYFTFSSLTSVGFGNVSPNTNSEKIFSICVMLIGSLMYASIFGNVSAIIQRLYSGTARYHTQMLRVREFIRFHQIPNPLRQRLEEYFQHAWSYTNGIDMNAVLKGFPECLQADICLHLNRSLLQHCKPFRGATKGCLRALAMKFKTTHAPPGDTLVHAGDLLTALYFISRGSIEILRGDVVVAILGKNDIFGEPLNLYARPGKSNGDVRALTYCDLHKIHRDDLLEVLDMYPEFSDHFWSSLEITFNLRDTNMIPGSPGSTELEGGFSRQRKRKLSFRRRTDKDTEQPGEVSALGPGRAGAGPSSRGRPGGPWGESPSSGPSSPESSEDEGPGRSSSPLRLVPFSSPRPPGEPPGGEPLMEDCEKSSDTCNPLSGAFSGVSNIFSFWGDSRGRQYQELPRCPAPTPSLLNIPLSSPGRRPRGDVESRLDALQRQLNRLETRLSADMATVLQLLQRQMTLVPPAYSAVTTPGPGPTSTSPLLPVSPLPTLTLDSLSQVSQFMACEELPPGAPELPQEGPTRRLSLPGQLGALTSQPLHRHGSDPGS
row,Compound,"hERG current change (%, negative = inhibition) at 1uM [%]"
1,O=[N+]([O-])c1ccc(N2CCN(S(=O)(=O)c3ccc4ccccc4c3)CC2)cc1NCC1CCCO1 (stereo not shown),15.4
2,CCn1c(C)nc2cc(C(=O)NNC(=O)Nc3ccc(Cl)cc3)ccc21,3.14
3,CN(C)Cc1ccccc1Sc1ccccc1Br,-1.66
4,COc1ccccc1NC(=O)CSc1ccc(-c2ccc(-n3ccnc3)cc2)nn1,2.72
5,Cc1ccc(CN(CC(=O)NCC2CCCO2)S(=O)(=O)c2ccc(C)cc2)cc1 (stereo not shown),11.9
6,Cn1cccc1/C=N/N1CCN(Cc2ccccc2)CC1,8.09
7,Cc1ccc(NC(=O)C2C3C=CC4(O3)C2C(=O)N(CCCN2CCCC2)C4C(=O)NC2CCCCC2)cc1Cl (stereo not shown),18.6
8,CCOC(=O)C(NC(=O)Nc1ccc(C(N)=O)cc1)(c1ccccc1)C(F)(F)F (stereo not shown),0.733
9,CCC(C(=O)Nc1ccc(C(=O)O)cc1NC(=O)C(CC)c1ccccc1)c1ccccc1 (stereo not shown),12.2
10,O=C(O)C1Cc2ccccc2N2CCCC12 (stereo not shown),15.6
11,CCOc1ccc(/C=C2\SC(=S)N(NS(=O)(=O)c3ccccc3)C2=O)cc1OC,6
12,COc1ccc(Cc2nnc(NC(=O)c3cc(OC)c(OC)c(OC)c3)s2)cc1,10.9
13,COc1ccc(C(=O)/C=C/c2ccc(F)cc2)c(OC(=O)c2ccc([N+](=O)[O-])cc2)c1,10.2
14,COc1ccc(-n2cnnc2SCC(=O)Nc2cccc(S(=O)(=O)N3CCCCC3)c2)cc1,2.72
15,Cc1cc(NC(=O)c2cc(Cl)ccc2Cl)no1,11.6
16,Cc1ccccc1OCC(=O)Nc1ccc(Cc2ccncc2)cc1,12
17,COC(=O)c1ccccc1NC(=S)N(C)C,8.26
18,O=C1C2C3C=CC(CC3)C2C(=O)N1c1ccccc1 (stereo not shown),8.92
19,CC(C)C(OC(=O)C1CCCO1)C(=O)NC1CCCC1 (stereo not shown),3.19
20,COc1ccc(N(CC(=O)N2CCN(C)CC2)S(C)(=O)=O)cc1OC,10.3
21,CCN1CCN(CCNC(=O)CSCc2nc(-c3ccc(OC)c(OC)c3)oc2C)CC1,8.51
22,COc1ccc(N2CCN(C(=O)CNC(=O)c3ccccc3Cl)CC2)cc1,12.4

row,Compound,"hERG current change (%, negative = inhibition) at 1uM [%]"
1,CC(=O)[O-].Cc1cc(C)c(S(=O)(=O)n2cc(C(C)C([NH3+])C(=O)O)c3ccccc32)c(C)c1 (stereo not shown),11.5
2,C/C(=N\N(Cc1ccccc1)c1ccccc1)c1cccnc1,9.08
3,COc1cc(OC)c(C(=O)Nc2ccccc2-c2ccccc2)cc1OC,0.123
4,COc1ccc(NC(=O)N2CCCCCC2)c(OC)c1,10.7
5,O=C(CSCc1ccccc1)Nc1ccc(S(=O)(=O)Nc2ncccn2)cc1,6.31
6,CCC1CCCCN1CCCNC(=O)Cn1c(=O)c2cccn2c2cccnc21 (stereo not shown),15.8
7,COCOc1cc(O)c(C(=O)/C=C/c2ccc(OCOC)c(OCOC)c2)c(OCOC)c1,8.03
8,O=C(O)C1C2C=CC(O2)C1C(=O)NCCc1cccc(Cl)c1 (stereo not shown),15.9
9,C=CCn1c(SC)nnc1C1COc2ccccc2O1 (stereo not shown),-7.25
10,O=C(NCCC(=O)N(Cc1ccco1)Cc1cccs1)c1ccccc1Cl,6.66
11,CCOC(=O)CSc1ccccn1,12.4
12,COc1ccc(Cc2nc3ccc(C(=O)N(C)CCn4ccnc4)cc3o2)cc1OC,9.8
13,CN(C)C(/C=C/Nc1cccc([N+](=O)[O-])c1)=C(C#N)C#N,2.57
14,O=C(Cc1cccs1)NCC1CCCO1 (stereo not shown),12.3
15,O=C(Cc1cccs1)N/N=C/C(Cl)=C/c1ccccc1,16
16,CCc1nnc(NC(=O)c2cc(-c3ccccn3)nc3ccc(Br)cc23)s1,9.56
17,COCCn1c(SCC(=O)NN2C(=O)NC(C)(c3ccccc3)C2=O)nnc1-c1ccncc1 (stereo not shown),9.42
18,Cc1ccc(CC(=O)NCc2ccc(Cl)cc2)cc1,10
19,Cc1c(-c2nnc(-c3ccc(C(F)(F)F)cc3)o2)cnn1-c1ccccc1,24.5
20,COC(=O)COc1ccc(S(=O)(=O)NCc2ccc3c(c2)OCO3)cc1C,8.88
21,O=C(CCCN1C(=O)c2cccc3cccc(c23)C1=O)NCc1cccs1,13.4
22,COc1cc(C(=O)OCC(=O)NCCN2C(=O)CSC2=O)ccc1OCc1c(C)noc1C,10.4

row,Compound,"hERG current change (%, negative = inhibition) at 1uM [%]"
1,CCCC1(c2ccccc2)NC(=O)N(CCN2C(=O)c3ccccc3C2=O)C1=O (stereo not shown),-3.1
2,CCN(CC)CCn1c(N)cc(=O)[nH]c1=O,-2.3
3,O=C(O)CCCC(=O)Nc1ccc(Oc2cccc(C(F)(F)F)c2)nc1,14.6
4,O=C(CNC(=S)N(Cc1ccccc1F)C1CCCCC1)NCCCN1CCOCC1,-6.06
5,Cc1ccc(C)c(S(=O)(=O)N2CCN(CC(=O)NC(=O)NCc3ccco3)CC2)c1,-8.25
6,N#C/C(=C\c1cn[nH]c1-c1ccccc1Br)C(=O)O,6.43
7,Cc1ccc(C(=O)NC2CCN(C(=O)Nc3ccc(F)cc3)CC2)cc1,8.68
8,CCOc1cc2ccccc2cc1C(=O)Nc1ccccn1,9.93
9,COc1cc(C(=O)NC(=S)Nc2csc(-c3ccc(F)cc3)n2)cc(OC)c1OC,7.5
10,CC1C/C(=N/NC(=O)c2cccs2)CC(C)(C)C1 (stereo not shown),6.43
11,CCOC(=O)C1CCN(C(=O)CCc2c(C)nc3cc(-c4ccc(OC)cc4OC)nn3c2C)CC1,-10.6
12,CC(=O)Nc1ccc2c(c1)nc1n2CCN(C(C)c2ccccc2)C1 (stereo not shown),16.2
13,CCOC(=O)c1ccc2c(c1)C1C=CCC1C(C(=O)OCC)N2 (stereo not shown),7.2
14,O=C(CSc1nc2ccccc2[nH]1)N1c2ccccc2Sc2ccccc21,13.1
15,COc1ccc(-c2nc(CS(=O)CC(=O)NCc3ccc4c(c3)OCO4)c(C)o2)cc1OC (stereo not shown),6.47
16,O=c1c2ccccc2nc2c3ccccc3cnn12,-2.4
17,Cc1occc1C(=O)NCCc1cccc(Cl)c1,8.4
18,C/C(=N\NC(=O)c1ccc(OC2CCCC2)cc1)c1ccc(C)s1,7.46
19,Cc1nc(-c2ccc(Cl)cc2)sc1C(=O)NN,10.9
20,CC(=O)c1ccc(OCCn2c(SCC(=O)O)nc3ccccc32)cc1,10.1
21,O=C(CSc1ncnc2scc(-c3ccccc3)c12)N1CCN(Cc2ccc3c(c2)OCO3)CC1,8.81
22,Cc1ccc(NC(=O)CSCC(=O)NC2CCCCC2)cc1,-5.91

row,Compound,"hERG current change (%, negative = inhibition) at 1uM [%]"
1,O=C(COC(=O)/C=C/c1ccc(Cl)cc1)Nc1ccc2[nH]c(=O)[nH]c2c1,21
2,COC(=O)c1ccccc1NC(=O)CSc1nc2ccccc2c(=O)[nH]1,15.7
3,Cc1ccc(Nc2c(-c3ccco3)nc3ccccn23)cc1,-27.5
4,N#C/C(=C\c1ccccc1)C(=O)Nc1cccnc1,8.08
5,Cc1ccc(C(=O)NCC(=O)OCC(=O)N(CC(C)C)c2c(N)n(Cc3ccccc3)c(=O)[nH]c2=O)cc1C,20.4
6,CCCCNC(=S)N1CCN(C(c2ccccc2)c2ccccc2)CC1,12.7
7,CC(=O)Nn1c(COc2ccccc2C)nc2ccccc2c1=O,0.242
8,O=C(CNc1cc(S(=O)(=O)N2CCOCC2)ccc1NCC1CCCO1)Nc1cccc(F)c1 (stereo not shown),8.71
9,CCOc1ccc2ncc(S(=O)(=O)c3ccccc3)c(N3CCN(c4ccc(OC)cc4)CC3)c2c1,1.95
10,COC(=O)CC1=Nc2ccccc2NC(=O)C1,17.9
11,Cc1ccc(OCc2nnc(SCC(=O)Nc3ncc(C)s3)o2)cc1,9.37
12,Cn1ccnc1Sc1nc2c(c(=O)n(C)c(=O)n2C)n1C,5.82
13,CS(=O)(=O)NCc1ccc(C(=O)NCCOc2ccccc2)cc1,1.82
14,CCn1c(O)c(N=NC(=O)c2ccc(CSc3nncn3C)cc2)c2ccccc21,13.3
15,O=C(NCC(c1ccco1)N1CCN(c2ccccc2F)CC1)C(=O)NC1CC1 (stereo not shown),5.07
16,CC(C)(c1ccccc1)c1ccc(OCC(O)CNC2CCN(Cc3ccccc3)CC2)cc1.O=C(O)C(=O)O (stereo not shown),10.8
17,CC1CCN(S(=O)(=O)c2ccc(NC(=O)Cc3ccccc3)cc2)CC1,11.6
18,Cc1cccc(N=N/C(=C\O)C(=O)c2cccs2)c1,4.53
19,C=CCn1c(-c2sc(-c3ccccc3)nc2C)n[nH]c1=S,8.31
20,O=C(CNC(=O)c1ccccc1)OCc1cccc(Br)c1,2.81
21,CCOc1ccc(-c2nnc(N3CCCCC3)c3ccccc23)cc1,8.06
22,COc1ccc(/C=N/NC(=O)c2[nH]c3ccc(Br)cc3c2-c2ccccc2)c(C(=O)O)c1OC,5.03
